Sequences with one replicate were seen in a single cluster, so their values are uncertain.
System: ATP
Assay: switch fluorescence ratio, 500 uM ATP over buffer (Cy3 cluster intensity, sum of 5 cycles each) (fold (ratio)); higher = stronger signal-on switching upon ATP binding; sequences stand for … in TCGTCGGCAGCGTCAGATGTGTATAAGAGACAGTTTTTTTTTTTTTTTTTTTTTTTTT…TC
Conditions: aptamer strand: ATP DNA aptamer (quencher-CACCTGGGGGAGTATTGCGGAGGAAGG + anchor), 100 nM annealed; ATP concentration: 500 uM; one replicate
Procedure, shortened: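 Values give the fluorescence ratio for each switch-domain sequence, averaged from per-cluster ratios of summed target-cycle to summed buffer-cycle Cy3 intensity. The Cy3-labelled switching-strand clusters sat on a modified Illumina MiSeq flow-cell, were annealed to 100 nM quencher-labelled ATP aptamer, and were imaged in selection buffer, then after 15 min with 500 uM ATP at 22 °C. Five cycles ran with NaOH stripping and re-annealing between them, and clusters outside 100-1000 RFU were excluded.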
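Also: ATP exposure 15 min at 22 °C before imaging.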

Question: How did the switch fluorescence ratio turn out when CGGCACGTCT was run?
Answer: 1.02

Question: For CGGCAGTATT, which switch fluorescence ratio is on record?
Answer: 1.05

Question: CGGCATCGTA was tested. Which switch fluorescence ratio did it give?
Answer: 1.04

Question: Which switch fluorescence ratio does the source give for CGGCATCTTT here?
Answer: 0.968

Question: Which switch fluorescence ratio does the source give for CGGCCAGAGG here?
Answer: 0.989

Question: Which switch fluorescence ratio does the source give for CGGCCCGTCA here?
Answer: 1

Question: With CGGCCCTTG as the sequence, how does the switch fluorescence ratio read?
Answer: 1.01

Question: Which switch fluorescence ratio does the source give for CGGCCTATTA here?
Answer: 1.03

Question: With CGGCCTCAAG as the sequence, how does the switch fluorescence ratio read?
Answer: 1.02

Question: CGGCCTCTTT was tested. Which switch fluorescence ratio did it give?
Answer: 0.988

Question: Which switch fluorescence ratio does the source give for CGGCGATTGA here?
Answer: 1.05

Question: With CGGCGCAATG as the sequence, how does the switch fluorescence ratio read?
Answer: 3.05

Question: With CGGCGCGT as the sequence, how does the switch fluorescence ratio read?
Answer: 0.991

Question: How did the switch fluorescence ratio turn out when CGGCGGAGCT was run?
Answer: 1.04

Question: For CGGCGGCTCT, which switch fluorescence ratio is on record?
Answer: 0.946

Question: How did the switch fluorescence ratio turn out when CGGCGGTGTA was run?
Answer: 1.05

Question: CGGCGTATGG was tested. Which switch fluorescence ratio did it give?
Answer: 1.02

Question: Which switch fluorescence ratio does the source give for CGGCGTATTG here?
Answer: 0.979

Question: Which switch fluorescence ratio does the source give for CGGCGTCATG here?
Answer: 1.05

Question: For CGGCGTTGG, which switch fluorescence ratio is on record?
Answer: 0.984

Question: Which switch fluorescence ratio does the source give for CGGCGTTTGT here?
Answer: 0.994

Question: With CGGCTAGCCG as the sequence, how does the switch fluorescence ratio read?
Answer: 0.988

Question: For CGGCTATTTG, which switch fluorescence ratio is on record?
Answer: 1.02

Question: For CGGCTCAGTC, which switch fluorescence ratio is on record?
Answer: 1.03

Question: CGGCTGTGAC was tested. Which switch fluorescence ratio did it give?
Answer: 1.05

Question: How did the switch fluorescence ratio turn out when CGGCTTGTTT was run?
Answer: 0.958

Question: Which switch fluorescence ratio does the source give for CGGCTTTTGC here?
Answer: 1.09

Question: With CGGGAAGGAA as the sequence, how does the switch fluorescence ratio read?
Answer: 1.04

Question: Which switch fluorescence ratio does the source give for CGGGAAGTTG here?
Answer: 0.943

Question: How did the switch fluorescence ratio turn out when CGGGACAGCT was run?
Answer: 0.983

Question: How did the switch fluorescence ratio turn out when CGGGACTCGA was run?
Answer: 0.996

Question: With CGGGAGAAGA as the sequence, how does the switch fluorescence ratio read?
Answer: 0.975

Question: With CGGGAGCCTG as the sequence, how does the switch fluorescence ratio read?
Answer: 0.984

Question: For CGGGAGTCGG, which switch fluorescence ratio is on record?
Answer: 1

Question: Which switch fluorescence ratio does the source give for CGGGCAAATC here?
Answer: 1.19

Question: How did the switch fluorescence ratio turn out when CGGGCATATG was run?
Answer: 0.995

Question: CGGGCATTGC was tested. Which switch fluorescence ratio did it give?
Answer: 1.13

Question: How did the switch fluorescence ratio turn out when CGGGCCAAAC was run?
Answer: 1.05

Question: For CGGGCCGTGA, which switch fluorescence ratio is on record?
Answer: 0.971

Question: With CGGGCCGTGT as the sequence, how does the switch fluorescence ratio read?
Answer: 0.983

Question: With CGGGCGATGA as the sequence, how does the switch fluorescence ratio read?
Answer: 0.995

Question: For CGGGCGTGCA, which switch fluorescence ratio is on record?
Answer: 1.01

Question: Which switch fluorescence ratio does the source give for CGGGCTAGCG here?
Answer: 0.979

Question: CGGGCTCAGA was tested. Which switch fluorescence ratio did it give?
Answer: 0.934

Question: CGGGCTCTTT was tested. Which switch fluorescence ratio did it give?
Answer: 0.986

Question: How did the switch fluorescence ratio turn out when CGGGCTTTGA was run?
Answer: 1

Question: With CGGGGAAACG as the sequence, how does the switch fluorescence ratio read?
Answer: 0.987

Question: How did the switch fluorescence ratio turn out when CGGGGAAGCC was run?
Answer: 0.998

Question: Which switch fluorescence ratio does the source give for CGGGGCTAGT here?
Answer: 1.18

Question: For CGGGGCTTG, which switch fluorescence ratio is on record?
Answer: 1.02

Question: CGGGGGCTAT was tested. Which switch fluorescence ratio did it give?
Answer: 0.993

Question: CGGGGTGGCA was tested. Which switch fluorescence ratio did it give?
Answer: 0.974

Question: For CGGGGTTAGA, which switch fluorescence ratio is on record?
Answer: 0.99

Question: CGGGGTTGC was tested. Which switch fluorescence ratio did it give?
Answer: 0.97

Question: For CGGGTACGTT, which switch fluorescence ratio is on record?
Answer: 0.944

Question: CGGGTACTCT was tested. Which switch fluorescence ratio did it give?
Answer: 0.989

Question: Which switch fluorescence ratio does the source give for CGGGTCCGCA here?
Answer: 1.45

Question: CGGGTTCAC was tested. Which switch fluorescence ratio did it give?
Answer: 0.98

Question: CGGGTTGCTA was tested. Which switch fluorescence ratio did it give?
Answer: 0.999

Question: With CGGTAAAATG as the sequence, how does the switch fluorescence ratio read?
Answer: 1.01

Question: With CGGTAACAAT as the sequence, how does the switch fluorescence ratio read?
Answer: 1.14

Question: With CGGTAATTGT as the sequence, how does the switch fluorescence ratio read?
Answer: 1.2

Question: Which switch fluorescence ratio does the source give for CGGTACCTAG here?
Answer: 1.05

Question: Which switch fluorescence ratio does the source give for CGGTAGACTC here?
Answer: 1.04

Question: How did the switch fluorescence ratio turn out when CGGTAGCCTA was run?
Answer: 0.991

Question: Which switch fluorescence ratio does the source give for CGGTAGCTGG here?
Answer: 0.988

Question: For CGGTAGGGAG, which switch fluorescence ratio is on record?
Answer: 0.957

Question: With CGGTAGGGTG as the sequence, how does the switch fluorescence ratio read?
Answer: 0.952

Question: Which switch fluorescence ratio does the source give for CGGTAGGTTC here?
Answer: 1.02

Question: For CGGTATAAGA, which switch fluorescence ratio is on record?
Answer: 1.03

Question: With CGGTATGTGT as the sequence, how does the switch fluorescence ratio read?
Answer: 1.07

Question: For CGGTCATTAC, which switch fluorescence ratio is on record?
Answer: 2.3

Question: How did the switch fluorescence ratio turn out when CGGTCCATTT was run?
Answer: 0.965

Question: How did the switch fluorescence ratio turn out when CGGTCCCCTT was run?
Answer: 1.05

Question: Which switch fluorescence ratio does the source give for CGGTCGGCTT here?
Answer: 0.98

Question: With CGGTCTGGGC as the sequence, how does the switch fluorescence ratio read?
Answer: 0.972

Question: For CGGTGAGAA, which switch fluorescence ratio is on record?
Answer: 0.959

Question: With CGGTGAGCGC as the sequence, how does the switch fluorescence ratio read?
Answer: 0.975

Question: How did the switch fluorescence ratio turn out when CGGTGATGAA was run?
Answer: 0.998

Question: For CGGTGATGCA, which switch fluorescence ratio is on record?
Answer: 1.07

Question: With CGGTGCCGAA as the sequence, how does the switch fluorescence ratio read?
Answer: 0.902

Question: Which switch fluorescence ratio does the source give for CGGTGCGCCA here?
Answer: 1

Question: With CGGTGCGTG as the sequence, how does the switch fluorescence ratio read?
Answer: 1.01

Question: With CGGTGTCATG as the sequence, how does the switch fluorescence ratio read?
Answer: 1.01

Question: How did the switch fluorescence ratio turn out when CGGTTACGCG was run?
Answer: 0.997

Question: With CGGTTATGTG as the sequence, how does the switch fluorescence ratio read?
Answer: 0.984

Question: How did the switch fluorescence ratio turn out when CGGTTCTGAG was run?
Answer: 1.04

Question: For CGGTTCTTTT, which switch fluorescence ratio is on record?
Answer: 0.983

Question: Which switch fluorescence ratio does the source give for CGGTTTACCG here?
Answer: 0.951

Question: How did the switch fluorescence ratio turn out when CGGTTTACGC was run?
Answer: 0.945

Question: Which switch fluorescence ratio does the source give for CGTAAAGAGC here?
Answer: 0.985

Question: How did the switch fluorescence ratio turn out when CGTAAAGCGC was run?
Answer: 1.03

Question: CGTAACTGCA was tested. Which switch fluorescence ratio did it give?
Answer: 1.04

Question: For CGTAAGACCC, which switch fluorescence ratio is on record?
Answer: 1.22

Question: How did the switch fluorescence ratio turn out when CGTAAGAG was run?
Answer: 1.04

Question: How did the switch fluorescence ratio turn out when CGTAAGCGGG was run?
Answer: 0.992

Question: With CGTAAGTTCG as the sequence, how does the switch fluorescence ratio read?
Answer: 1

Question: With CGTACATAGC as the sequence, how does the switch fluorescence ratio read?
Answer: 1.13

Question: CGTACATATT was tested. Which switch fluorescence ratio did it give?
Answer: 1.05

Question: CGTACCTCGT was tested. Which switch fluorescence ratio did it give?
Answer: 0.98

— the supplement of paper PMC10126150
